Experimental data as given in PubChem BioAssay AID485344 (National Center for Advancing Translational Sciences (NCATS), 2010).
The whole screen tested about 340,000 compounds, of which about 6,900 (2%) were called active. Rule as the data show it: active = inhibition above about 30%; inactive = below that, where a call was filed. The entries are a selection whose mix differs from that of the whole data set. The source gives no active or inactive call for entries shown without one.

Molecular target: D(2) dopamine receptor (Homo sapiens) (UniProt P14416)
Experiment: HTS Assay for Allosteric Antagonists of the Human D2 Dopamine Receptor: Primary Screen for Antagonists; also: 0% is about no effect
Conditions: HEK293 TREx D2 cells, calcium flux, dopamine EC80; at 10 µM; stronger effect = higher value
Method in brief: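 Antagonism is scored as inhibition of an EC80 dopamine-evoked calcium signal in a force-coupled, tetracycline-inducible HEK293 T-REx D2 line, with compound present 180 s before agonist.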

Sequence of UniProt P14416 (P14416 whole entry, looked up): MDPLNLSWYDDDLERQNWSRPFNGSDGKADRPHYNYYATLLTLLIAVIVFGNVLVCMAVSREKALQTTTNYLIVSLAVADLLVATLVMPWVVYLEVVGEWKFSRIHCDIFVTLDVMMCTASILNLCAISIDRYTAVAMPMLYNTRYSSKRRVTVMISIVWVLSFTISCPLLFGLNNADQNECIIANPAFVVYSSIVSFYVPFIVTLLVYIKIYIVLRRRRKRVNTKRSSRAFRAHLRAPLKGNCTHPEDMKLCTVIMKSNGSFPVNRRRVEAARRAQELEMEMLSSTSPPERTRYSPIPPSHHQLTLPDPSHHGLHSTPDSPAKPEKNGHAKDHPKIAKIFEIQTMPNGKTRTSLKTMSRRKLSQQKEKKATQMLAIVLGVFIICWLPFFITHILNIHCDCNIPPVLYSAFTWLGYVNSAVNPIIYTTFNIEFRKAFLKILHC

SMILES | inhibition
Cc1nc2ccccn2c(=O)c1NC(=O)c1c(F)cccc1F | -2.36%
COc1cccc(C(=O)Nc2cc(-c3cn4cccnc4n3)ccc2C)c1OC | 16.9%
Cn1c(=O)oc2cc(S(=O)(=O)N3CCC(C(=O)N4CC=C(c5ccccc5)CC4)CC3)ccc21 | active: 40.6%
CCOc1ccc(NC(=O)c2sc3nc4c(cc3c2N)CCCCCC4)cc1 | 14.9%
Cc1ncoc1C(=O)N1CCCC(C(=O)c2ccc(-c3ccccc3)cc2)C1 (configuration not stated) | active: 51.7%
O=C(NC(=O)N1CCCCCC1)c1ccc(Cl)cc1 | active: 31.7%
CCOc1ccc(NC(=O)c2c(NC(=O)c3ccco3)sc3c2CCC(C(C)(C)C)C3)cc1 (configuration not stated) | -18.4%
O=C(Nc1cccc(C(F)(F)F)c1)C1CCN(c2nnc(-n3cccc3)s2)CC1 | -9.03%
COc1cc(NS(=O)(=O)c2ccc(NC(=O)C(C)Oc3ccc(Cl)cc3Cl)cc2)nc(OC)n1 (configuration not stated) | 11.5%
Cc1nc2cccnc2n1-c1cccc(C(=O)NCc2ccc(OC(C)C)cc2)c1 | -1.3%
O=C(O)CC(NS(=O)(=O)c1ccc(Cl)s1)c1ccccc1 (configuration not stated) | -2.55%
COc1ccc(Nc2c(-c3ccc(Cl)cc3)nc3cnccn23)cc1OC | 10.3%
CCC12CN3CC(C)(CN(C1)C3c1ccc(O)cc1O)C2=O (configuration not stated) | 2.64%
O=C(NCc1ccccc1Cl)C1CCN(S(=O)(=O)c2ccc3c(c2)CCCN3C(=O)C2CCC2)CC1 | 3.84%
Cc1cc(C)cc(Oc2coc3c(CN4CCN(C)CC4)c(O)ccc3c2=O)c1 | 3.35%
Cc1ccc2nc(/C(C#N)=C/c3cccc(Br)c3)[nH]c2c1 | -18.7%
O=C(Cc1csc2ccccc12)NCc1cccc(Br)c1 | -6.43%
CN(C)S(=O)(=O)n1cc(/C=C(\NC(=O)c2ccccc2F)C(=O)NCCCn2ccnc2)c2ccccc21 | 7.14%
Cc1ccccc1CN1CCC(CNc2ncnc3onc(-c4ccc(Cl)cc4)c23)CC1 | 2.42%
Cc1ccc(NC(=O)C2CCCN(c3ncnc4c3nc3n4CCCCC3)C2)cc1F (configuration not stated) | 0.13%
CC(NC(=O)C1(c2cccs2)CCOCC1)c1ccccc1 (configuration not stated) | -20.2%

SMILES | inhibition
CCCN(CCC)CCCNC(=O)c1cc2c(=O)oc3ccc(C)cc3c2s1 | 28.4%
Cc1ccc(CN2CCSc3ccc(C(=O)Nc4ccc(Cl)cc4)cc32)cc1 | -10.7%
CCOc1ccc(CCNC(=O)CCCc2cc(-c3ccc(OCC)cc3)on2)cc1 | -19.2%
COc1cccc(CNC(=O)c2nnn(CC(=O)Nc3cc(Cl)ccc3C)c2N)c1 | -0.898%
Cc1cccc(N2C(=O)C(CC(=O)Nc3cccc(F)c3)N(Cc3cccs3)C2=O)c1 (configuration not stated) | -5.58%
Cc1ccc(Nc2cc(C)nc3nc(Cc4ccc(Cl)cc4)nn23)cc1 | 1.43%
COc1cccc(CNC(=O)Cn2c(=O)oc3cc(S(=O)(=O)N4CCCC4)ccc32)c1 | -2.78%
Cc1ccc(-c2ccc(=O)n(Cc3ccc(F)cc3)n2)cc1 | 0.355%
CCC(=O)N1CCc2cc(Br)cc(S(=O)(=O)CCC(=O)Nc3cccc(CC)c3)c21 | 6.71%
COC(=O)c1c(C)oc2ccc(N(C(=O)c3ccncc3)S(=O)(=O)c3cc(C)c(C)cc3C)cc12 | 13.9%
COc1ccc(C(CC(=O)Nc2ccc(C)cn2)N2Cc3ccccc3C2=O)cc1OC (configuration not stated) | 3.84%
CCOC(=O)N1CCC(NC(=O)c2ccc3c(c2)N(Cc2cccc(C)c2)C(=O)c2ccccc2S3(=O)=O)CC1 | -13.7%
CCOc1ccccc1C1N=C(N)Nc2nc3ccccc3n21 (configuration not stated) | -8.51%
CCOC(=O)c1c(S(=O)(=O)N2CCC(C(=O)N3CCN(c4cccc(C)c4C)CC3)CC2)c(C)n(C)c1C | 15.6%
CC1CCCN(CCOCCOc2ccc(Cl)cc2Br)C1 (configuration not stated) | active: 83.2%
Cc1ccccc1-c1nnc(CN2CCN(c3cc(Cl)ccc3C)CC2)o1 | 6.02%
COc1ccc2c(C(=O)CN3CCN(c4ccccc4)CC3)c[nH]c2c1 | active: 41.1%
CCOc1ccc(C(=O)Nc2c(C(=O)c3ccccc3)oc3ccccc23)cc1 | -7.08%
O=C(CSc1nnc(COc2ccc(Cl)cc2)o1)Nc1ccccc1 | 17.9%
O=S(=O)(Nc1cccc(Cl)c1)c1ccc2[nH]c3c(c2c1)CCCCCC3 | 21.8%
COc1ccc(N2CCN(C(=O)Cc3coc4ccc(C)cc34)CC2)cc1 | 6.04%

SMILES | inhibition
CCc1ccc(CNC(=O)c2ccc(CSc3nc4ccncc4n3Cc3ccc(OC)cc3)cc2)cc1 | 3.32%
COc1ccc(C)cc1NC(=O)C(=O)NCCc1sc(-c2ccc(Cl)cc2)nc1C | 19.1%
CC(C)Oc1cccc(NC(=O)C2CCN(S(=O)(=O)Cc3ccccc3)CC2)c1 | 0.933%
CCN(CC)C(=O)C1=C(C)Nc2nc3ccccc3n2C1c1ccc(Br)cc1 (configuration not stated) | -9.36%
CCc1noc(-c2ccc(NC(C)c3ccccc3)c([N+](=O)[O-])c2)n1 (configuration not stated) | 0.333%
CC(=O)c1cccc(NC(=O)CCS(=O)(=O)c2cc3c(cc2C)NC(=O)CO3)c1 | -1.37%
CCOC(=O)c1c(NC(C)=O)c2c3c(sc2n1Cc1nc(-c2ccc(Cl)cc2)oc1C)CCCC3 | 8.57%
COc1ccc(-n2nc(C(=O)NCCc3ccc(Cl)cc3)c3c4ccccc4n(C)c3c2=O)cc1Cl | -1.16%
O=C(Cn1c(=O)n(Cc2ccco2)c(=O)c2ccc(C(=O)NC3CCCC3)cc21)Nc1ccc(F)cc1 | -2.43%
Cc1ccc(-c2ccc(CCC(=O)O)n2C(C)C)cc1 | active: 32.6%
COc1ccccc1N1CCN(Cc2nc(N)nc(Nc3ccccc3)n2)CC1 | active: 34%
Cc1cc(-c2ccc(C)c(S(=O)(=O)N3CCCC(C)C3)c2)on1 (configuration not stated) | 1.2%
O=C(Cn1nc2c(cc1=O)CCCC2)Nc1ccc(F)cc1F | -17.4%
COc1ccc(CCNC(=O)c2c(O)nc3cc(C)ccn3c2=O)cc1OC | -16.2%
CCc1nn(CC(=O)NCc2ccco2)c(=O)c2cc3cc(F)ccc3n12 | 0.177%
Cc1ccc(NC(=O)c2nc(S(C)(=O)=O)ncc2N(Cc2cccc(F)c2)Cc2ccco2)cc1C | 8.32%
Cc1ccc(NC(=O)CCCc2nnc3n(C)c(=O)c4sccc4n23)cc1C | 3.95%
CCOc1ccccc1N1CCN(CC(O)COc2ccc3c(C)cc(=O)oc3c2)CC1 (configuration not stated) | active: 64.8%
Cc1cccc(NC(=O)c2c(C)nc3ccccn23)c1 | active: 40.1%
COc1ccc(OC)c(NC(=O)Cn2nc3c(cc2=O)CCCC3)c1 | -5.98%
